Source: paper PMC2922422 (Neuropsychopharmacology : official publication of the …, 2010)

System: Wistar rats
Experiment: intravenous cocaine self-administration, short
Settings: ShA rats, 1 h session; 20 and 40 mg/kg i.p., 60 min pretreatment, vs vehicle

## Cc1c(OCc2cccc(-c3ccc(C(=O)[O-])cc3)c2)cc2c(c1C)C(=O)C(C1CCCC1)C2.[K+] (stereo not shown) [BINA, potassium 3′-([2-cyclopentyl-6-7-dimethyl-1-oxo-2,3-dihydro-1H-inden-5yloxy]methyl)biphenyll-4-carboxylate]
  cocaine self-administration (infusions earned, % of baseline): significant decrease in cocaine intake
